Read counts are not given, so values of variants with three or more changes are uncertain.
B1: OR4K15 (parent)
chain: GUUAACGGUCAUAGGCCAUGGAAACUAGGAGCACCAUUUCGCUGCCAGUGAAGAAAUGAACAAAGAAAAUCUGGGCCAGGCAGGCAUCAAAAGAAAUAGUCUUGCGCUCAACCAGAAAGUCUGUAAUCAUUUUAAGGGUA

Variants of: B1
Assay: self-cleavage, relative activity (ratio to wild type); higher = more cleavage; in vitro, sequencing; the parent is a self-cleaving ribozyme

| Variant | self-cleavage |
| --- | --- |
| A64G A94G A129G | 0.52 |
| G28A A36G U38C A95G U97C | 0.86 |
| U3C U9C C42U | 1.2 |
| A27U A91G U103C U130C | 0.36 |
| C46U A52G A96G A110G | 0.16 |
| A13G A23G U49C | 1.03 |
| U39A A54U A94G U127C U130C | 0.46 |
| G15U A51G A56G A68G C77U | 1.49 |
| A13C A23G U132C | 1.69 |
| A63G A78U U127G | 0.24 |
| U3C C40U U97C | 0.8 |
| A24G U100C U127C | 1.72 |
| A5U C10A A55G A66G U124C | 0.9 |
| U124C U132C A134G | 0.59 |
| A64G U120G A126G | 1.38 |
| A64G A69G U130G | 1.18 |
| A51U A52U A55G A68G | 1.09 |
| U2C A86U A126G | 0.37 |
| U2C A22G A96G A129G | 0.82 |
| U9C A62G A63G A68G | 0.95 |
| G28A A98G A111U U127C | 0.01 |
| U2C G99A G106U U130G | 0 |
| U9C A56G A92C | 1.53 |
| A69C U87C A96U U100C U102A A117G | 2.6 |

| Variant | self-cleavage |
| --- | --- |
| A5U A51G A125G | 0.47 |
| A5G U37C U108A | 0.17 |
| A22G U70C U100C | 1.06 |
| A47G A54G U108C | 0.02 |
| U37C U49A A69G A82G A89G A129U | 0.28 |
| A60G A66G A118G | 0.78 |
| A60G A67G A86G A89G A116G | 0.37 |
| U37G A51G A68G A89G | 0.8 |
| A23G A30G A54C A60G A91G A96G U108C | 0.03 |
| A23G U38A A51G U87G A111G U131C | 0.01 |
| A11G G15A G48U | 0.81 |
| G79A A82G U120C | 0.18 |
| A52U U100C A135U | 2.53 |
| U38C A51G A95G | 1.61 |
| A67G U87C U103C U124A | 0.19 |
| A23G A94G U139C | 1.54 |
| A23G A116G A129G | 0.44 |
| A24G A82U A91G | 0.15 |
| A54G G115U U122A | 0.1 |
| A5G A11G A59G | 0.93 |
| U3C A18U A63U | 1.17 |
| U43C U103C A116G U132C | 0.1 |
| U2A U19C A22G A23G A117G | 1.41 |
| A66U A91G A116G | 0.12 |

| Variant | self-cleavage |
| --- | --- |
| U43A A54G A82U U87A U124A U131C | 0.04 |
| A23C U102G A111U | 0.04 |
| U9C A18C A22G | 1.07 |
| A23G C42A A64G A96G | 0.63 |
| U12C A82G U131C | 0.46 |
| A36G A47G A67G A94U U130C | 0.98 |
| A22G U26A A59G C128A U131C | 0.65 |
| A56G A94G U103C A140G | 1.35 |
| A33G A116G A135G | 0.13 |
| A22G U39C A59U A82G A91G | 0.06 |
| A22G A60G A114U A118G | 0.02 |
| A52U A55G A64G | 1.32 |
| A22G A52G A63G | 1.44 |
| U9C A47G A117G | 1.99 |
| U43C U122C A140G | 1.74 |
| A22G A56C A125G | 0.38 |
| A36U U38C A78U A116G | 0.08 |
| A18G A23G U130C | 0.43 |
| A60G U130C U131C | 0.89 |
| U38C A62G C101U A126G | 0.35 |
| G15A A22G A24G U127A | 0.78 |
| U9C U19A U37A | 0.7 |
| A13G U43C U57C G83A | 0.85 |
| U43A A55G A94G U108A A125G U130C | 0 |

| Variant | self-cleavage |
| --- | --- |
| A66G U132C A140G | 1.17 |
| A62G U72A U87C A96U | 0.1 |
| U43C A82G U97C | 0.3 |
| U72C A86U G104A U139C | 0.01 |
| A22G A69G A135G | 1.79 |
| A24G A98U U100C | 2.56 |
| A68G A98G A116G | 0.19 |
| U9C A22G A55G A91G | 1.01 |
| A59G A116U U139C | 0.11 |
| A4G A51G C113U | 0.09 |
| G28A A54U A96G U108C A126U | 0 |
| A64G U70A A82G | 0.22 |
| A5G U49C A56G | 0.99 |
| A30U A33G A55G U102C U132C | 1.87 |
| A22G A62G U124A | 0.64 |
| A55G A92G A116G A118G | 0.31 |
| U19A U37C A68G A116G U130C | 0.26 |
| U72C A96G A118G | 0.14 |
| U39C A52G U57C U72A | 0.19 |
| U9A U37C U39G | 0.81 |
| U9C A27U A33U U120C A129U U131C | 0.83 |
| U39A A60G A67G U108C G119A | 0.02 |
| U12G A22G U26A U72C | 0.38 |
| A11C U19A A78G | 0.52 |

| Variant | self-cleavage |
| --- | --- |
| G74A A114G G123A | 0.06 |
| U2C A24U U70C G75A A89U U103C | 0.03 |
| U37C A78U U122C | 0.13 |
| U37C A96G A118G | 1.08 |
| A4G U19C A52G U70C A78G | 0.22 |
| A5G A60G C61A A63U U127C | 1.3 |
| U3C U26C A47U A118G | 0.64 |
| A13G A22G A68G U87C | 0.64 |
| A90U A91G U102C U120C U139C | 1.02 |
| A68G U103C U122C | 0.95 |
| U3C A5G U49C A59G A63G A126G | 1.31 |
| U38C A91G A96U | 1.73 |
| A96G C121U U122A A135G | 1.6 |
| U39C G104A A140G | 0.03 |
| A4G A51G A82G | 0.32 |
| U9A G41A A98U U100A | 1.19 |
| G44A A96G U122C | 1.68 |
| U12C U39C A62G A67G U100C | 1.53 |
| A23G U43C G50A U70A A96G U127C A134U | 0.23 |
| A62G U87C A135U | 1.44 |
| U9A U43A A54G A62G | 1.67 |
| A59U A66G U87A | 1.2 |
| A23G A60G U87C | 1.46 |
| G21A G41A U49C | 1.62 |

| Variant | self-cleavage |
| --- | --- |
| U19C U72C A126G | 0.1 |
| U102A A110G A135G | 0.02 |
| A22G A78G A82G U87C A114C | 0.03 |
| A18G A64G A140G | 1.23 |
| U2A U39A A96U U102C | 1.01 |
| U19A A36G U38A U100C | 1.07 |
| A54G A56G A90G U130C | 0.43 |
| G15C A69G U100C U108C | 0.03 |
| U2C A4U U37C U38C A67G U132A | 1.15 |
| A56G U70C A91U | 0.87 |
| U19C A24G A62U | 1.34 |
| U72A A92G U131C | 0.11 |
| A24G U39C U100C | 1.22 |
| A18G A86G G106A | 0.01 |
| U2C A22G U57C U130C | 0.86 |
| C35A U43C U130C U131C | 1.04 |
| A63U G74C A117U | 0.11 |
| A68C U87C G115A | 0.05 |
| A23G A91U A125G | 0.39 |
| A66G U72C A95G A96G | 0.12 |
| A11G A68G A94U U103G | 0.04 |
| A22U U43C A95G | 1.06 |
| U39C A51U A86G | 2.28 |
| U39A A110U C113U | 0.25 |

| Variant | self-cleavage |
| --- | --- |
| U9C G41A G83A A118U | 1.99 |
| A90G C105A U131A | 0.02 |
| A36C U49G U57G A68G A78G | 0.26 |
| G28A U37C G58U | 1.28 |
| U12A G75A A140G | 0.14 |
| U2C A69G A98G | 0.49 |
| A5U G65A A111G | 0.13 |
| U38C U39C U103C | 2.22 |
| A30G A67G A82G U127C | 0.37 |
| G15A A62G A78G U102C | 0.2 |
| G7A A33U A59C A129U U132C | 0.38 |
| A11G A62U C109U | 0.38 |
| U57A A78G A98G | 0.09 |
| U26A A27G A59G A82G U132C | 0.38 |
| U2A A51G U127C | 0.25 |
| A24G A52U A66G A117G | 1.44 |
| U2C A27G A111G | 0.04 |
| U19A U103G A117G U127C | 0.04 |
| A56G G84A A98U | 2.27 |
| U3A A30G U100C | 0.69 |
| U12C A33U A54G A60G A82U | 0.14 |
| U72A U103C A126G | 0.05 |
| A67G A78U A86G | 0.14 |

— the RNAGym collection of RNA variant scans (doi:10.7554/elife.90254)
